# Assay results published in PubChem BioAssay AID1745853 (National Center for Advancing Translational Sciences (NCATS), 2022).
# Where “and” joins values, the source holds several entries; their conditions need not be identical. Equal values may be shown once. Some of the results follow. These are further read-outs of the screen, such as a control signal, another cell line or another target. No call is given for them.
# Legend:
# Assay in all cases: Primary Screen for Target Class Profiling of Small Molecule Inhibitors of Methyltransferases
# [1] = biological target: Glycine N-methyltransferase (Homo sapiens) (UniProt Q14749); conditions: purified enzyme, MTase-Glo SAH luminescence; measured here: GNMT inhibition; at 40 µM; stronger effect = lower value
# Method in brief: (§1)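 Each enzyme was assayed with SAM and its substrate. SAH formation detected by MTase-Glo luminescence; single-point 40 uM screen[…].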
# [2] = biological target: Guanidinoacetate N-methyltransferase (Homo sapiens) (UniProt Q14353); conditions: purified enzyme, MTase-Glo SAH luminescence; measured here: GAMT inhibition; at 40 µM; stronger effect = lower value
# Method in brief: as §1
# [3] = biological target: Histamine N-methyltransferase (Homo sapiens) (UniProt P50135); conditions: purified enzyme, MTase-Glo SAH luminescence; measured here: HNMT inhibition; at 40 µM; stronger effect = lower value
# Method in brief: as §1
# [4] = biological target: Nicotinamide N-methyltransferase (Homo sapiens) (UniProt P40261); conditions: purified enzyme, MTase-Glo SAH luminescence; measured here: NNMT inhibition; at 40 µM; stronger effect = lower value
# Method in brief: as §1
# [5] = biological target: Phenylethanolamine N-methyltransferase (Homo sapiens) (UniProt P11086); conditions: purified enzyme, MTase-Glo SAH luminescence; measured here: PNMT inhibition; at 40 µM; stronger effect = lower value
# Method in brief: as §1
# % is scaled to controls: 0 for no effect and ±100 for the full control effect.
SMILES,"activity change, negative = inhibition [1]","activity change, negative = inhibition [2]","activity change, negative = inhibition [3]","activity change, negative = inhibition [4]","activity change, negative = inhibition [5]"
O=C(CCc1nnc2n(Cc3ccc(F)cc3)c(=O)c3ccccc3n12)N1CCC(Cc2ccccc2)CC1,-5.89%,3.9%,1.13%,-6.42%,-4.55%
Cc1cc(C(=O)N2Cc3cnn(C)c3Nc3ccccc32)ccc1CNC(=O)N1CCN(Cc2cc(O)cc(O)c2)CC1,-23.6%,7.47%,1.81%,-20.5%,-5.9%
COc1ccc(-c2n[nH]n3c2nc(=O)c2ccc(C(=O)NCCc4ccc(OC)c(OC)c4)cc23)cc1,-12.1%,3.04%,-2.79%,-1.76%,-1.99%
C=C(C)[C@@H]1CCC2=CC(=O)C[C@@H](C)[C@]2(C)C1,–,7.82%,–,-14.5%,-5.94%
CC(C)CN1CCC[C@H]1c1nc(-c2ccnc(NS(C)(=O)=O)c2)no1,-2.62%,-2.21%,-1.02%,-6.9%,9.71%
C[C@@H](c1ncncc1F)[C@](O)(Cn1cncn1)c1ccc(F)cc1F,-5.8%,2.49% and 1.37%,-3.15%,-9.07% and -11.4%,4.2% and -2.31%
CCOCCCN1C(=O)c2cc3occc3n2CC1(C)C(=O)NC1CCCCCC1 (stereo not given),4.2%,0.824%,7.92%,8.72%,0.655%
COC(=O)c1ncn2c1C(=O)N(Cc1ccccc1C)C(C)(C(=O)NC1CCCCCC1)C2 (stereo not given),4.37%,0%,7.9%,12.9%,2.94%
Cc1c(NC(=O)c2ccc(C(C)(C)C)cc2)cccc1-c1cn(C)c(=O)c(Nc2ccc(C(=O)N3CCOCC3)cc2)n1,0.336%,10.9%,4.11%,-19.3%,-1.48%
C/C=C(\C)C(=O)O[C@@H]1CC2[C@@H](CC=C3C[C@@H](O[C@H]4C[C@H](OC)[C@H](O[C@H]5C[C@H](OC)[C@H](O[C@@H]6O[C@H](C)[C@@H](O[C@H]7C[C@H](OC)[C@H](O[C@@H]8O[C@H](CO)[C@@H](O)[C@H](O)[C@H]8O)[C@@H](C)O7)[C@H](OC)[C@H]6O)[C@@H](C)O5)[C@@H](C)O4)CC[C@@]32C)[C@@]2(O)CC[C@H](C(C)=O)[C@@]12C (stereo not given in full),0%,17.4%,6.36%,4.3%,11.4%
CN1CCN(CCNC(=O)c2cc(-c3ccccc3)cn2C)CC1,-4.02%,-4.82%,-5.66%,-3.36%,-2.93%
COCCOc1ccc(-c2noc([C@@H]3CCCN3C3CCCCC3)n2)cn1,1.76%,-4.97%,1.94%,-1.84%,1.8%
COCc1noc(-c2ccc(NC[C@H]3CCc4ccccc4O3)nc2)n1,-5.64%,-4.46%,-4.09%,-6.83%,-7.85%
COC(=O)c1ccc(NS(=O)(=O)c2ccc3[nH]c4c(c3c2)CCCC4)cc1,-15.6%,-1.01%,-5.7%,-7.41%,-2.23%
CCOC(=O)c1ccc2c(c1)[C@@H]1C=CC[C@@H]1[C@H](c1ccc(C)cc1)N2,-21.1%,-4.74%,-13.3%,-21.1%,-16%
CCNc1nccc(N2CCC(CC(=O)NCC(C)C)CC2)n1,-1.81%,0.169%,-67.2%,-3.15%,-1.28%
Cc1ccc(C(=O)N2CCC(N3CCOCC3=O)CC2)cc1,1.44%,-4.76%,0.627%,1.93%,-3.17%
COc1cccc(CN2C(=O)c3nc4ccccc4n3CC2(C)C(=O)NC2CCCCC2C)c1 (stereo not given),-0.347%,4.95%,4.24%,-0.803%,-1.29%
O=c1[nH]c(=O)n([C@H]2CCCO2)cc1F,1.88%,2.28%,8.53%,-9.45%,0.594%
CC(=O)c1c(C)cc(O)cc1O[C@@H]1O[C@H](CO)[C@@H](O)[C@H](O)[C@H]1O,5.47%,5.38%,4.6%,-8.88%,4.55%

SMILES,"activity change, negative = inhibition [1]","activity change, negative = inhibition [2]","activity change, negative = inhibition [3]","activity change, negative = inhibition [4]","activity change, negative = inhibition [5]"
Cc1cc2c(cc1S(=O)(=O)Nc1ccc(Cl)cc1)n(C)c(=O)n2C,-3.22%,0%,-6.15%,-10.8%,-6.95%
CN(C)CCN(C)[C@@H]1[C@H](O)[C@H](CO)O[C@@H]1CNCc1cccc(Cl)c1,-4.43%,-6.27%,-3.31%,-8.69%,-1.14%
CN[C@@H](C)[C@H]1[C@H](O)C[C@@]2(C)[C@@H]3CC[C@H]4C(C)(C)[C@@H](NC)CC[C@@]45C[C@@]35CC[C@]12C,5.45%,1.18%,-4.36%,-3.43%,9.95%
Cc1cccc(-c2nc3ccc(C(=O)NC4CCCCCC4)cc3o2)n1,-13.9%,-16.2%,-23.4%,-20.6%,-3.45%
Cn1ccnc1C(=O)N1C[C@@H](COCC2CC2)[C@H](c2ccncc2)C1,0.035%,0.919%,1.86%,0.25%,-3.23%
CC(C)c1cc2n(n1)CC(C)(C(=O)NC1CCCCC1)N(Cc1cccc(Cl)c1)C2=O (stereo not given),1.04%,0%,10.2%,5.62%,3.31%
COc1cc(F)c(F)c(Nc2ccc(I)cc2F)c1NS(=O)(=O)C1(CC(O)CO)CC1 (stereo not given),-1.5%,–,9.22%,–,–
CC(C)Cc1nc2nccc(-c3ccsc3)n2n1,-25.4%,-6.67%,-2.99%,-29.4%,-3.39%
O=C(NC1CCN(c2cc(-c3cccs3)[nH]n2)C1)c1cccnc1 (stereo not given),-10.7%,-6.5%,-3.12%,-21.5%,-12.4%
O=C(CCC1CCN(S(=O)(=O)c2ccc(F)cc2)CC1)NC1CCCC1,15.5%,0.631%,15.1%,5.47%,10.9%
CCOC(=O)c1cc2n(n1)CC(C)(C(=O)NCCC(C)C)N(Cc1ccc(CC)cc1)C2=O (stereo not given),2.16%,3.97%,-4.03%,4.48%,-3.17%
COc1ccc(CCN(C)CCc2ccc(OC)c(OC)c2)cc1OC,-3.99%,11.5%,7.79%,-5.1%,3.71%
CCC(C)NC(=O)c1ccc2c(=O)n(CC(C)C)c3nn(Cc4cccc(Cl)c4)c(=O)n3c2c1 (stereo not given),4.01%,0%,9.37%,3.34%,2.55%
CC1(C(=O)NC2CCCCCC2)Cn2c(cc3occc32)C(=O)N1Cc1ccco1 (stereo not given),0.487%,1.53%,0.302%,0.742%,1.07%
CC[N+](CC)(CC)CC,8.68%,22.2%,8.86%,4.73%,12.1%
NC(=O)c1noc([C@H](CCCC2CCCCC2)CC(=O)NO)n1,0.099%,0.115%,6.33%,-19.6%,-4.6%
CCc1ccccc1N1C(=O)Cn2cccc2C1C(=O)NC1CCCCC1C (stereo not given),-3.56%,0.063%,0.576%,9.34%,-1.05%
COc1ccc(OC)c2c1cc1n2CC(C)(C(=O)NC2CCCC2)N(Cc2ccccn2)C1=O (stereo not given),-22.6%,4.1%,10.3%,-2.54%,-12.8%
Cc1c(N2C(=O)c3ccc(C(=O)O)cc3C2=O)c(=O)n(-c2ccccc2)n1C,-1.28%,2.46%,8.73%,-5.57%,3.31%
CC[C@@]1(O)C(=O)OCc2c1cc1n(c2=O)Cc2cc3cc(O)ccc3nc2-1,-3.29%,6.43%,10.2%,-10.6%,3.14%

SMILES,"activity change, negative = inhibition [1]","activity change, negative = inhibition [2]","activity change, negative = inhibition [3]","activity change, negative = inhibition [4]","activity change, negative = inhibition [5]"
O=C(O)/C=C/c1ccc(O[C@@H]2O[C@H](CO)[C@@H](O)[C@H](O)[C@H]2O)cc1,0%,5.23%,8.56%,-4.49%,5.37%
Cc1ccc(CN2C(=O)c3cc4sccc4n3CC2(C)C(=O)NC2CCCCC2)cc1 (stereo not given),-12%,-0.375%,-5.56%,-6.04%,-4.63%
CN1C[C@@H](NS(=O)(=O)c2ccc(C#N)cc2)C[C@H]1c1nc(-c2ccc(Cl)cc2)no1,-8.2%,-7.79%,-5.18%,-8.21%,3.63%
CC(C)Cn1c(=O)c2ccc(Cl)cc2n2c(SCC(=O)Nc3ccccc3Cl)nnc12,-2.44%,0%,5.94%,-9.21%,-12%
CCC(C)NC(=O)c1ccc2c(=O)n(C3CC3)c3nn(CC(=O)Nc4ccc(F)cc4)c(=O)n3c2c1 (stereo not given),7.68%,0%,13%,3.07%,8.18%
COc1cccc(Cn2nc3n(CCC(C)C)c(=O)c4ccc(C(=O)NC(C)C)cc4n3c2=O)c1,-2.8%,-7.75%,8.15%,-4.56%,-4.78%
NC(=O)[C@H](CC1CCCCC1)NC(=O)[C@@H]1CN(C(=O)Nc2ccccc2)CCN1C(=O)C1CCCCC1,-1.66%,-6.14%,-1.46%,-1.75%,-7.85%
Cc1cccc(NC(=O)N2CCn3cccc3C2C)c1C (stereo not given),-0.108%,0%,0.292%,-9.66%,0.052%
Cc1ccc2c(c1)c1c3n2CCN(CC(O)CN2CCN(C(=O)c4ccco4)CC2)C3CCC1 (stereo not given),-4.88%,0%,-3.68%,10.4%,-6%
Cc1ccc(Cn2c(=O)c3ccccc3n3c(CCC(=O)N4CCN(c5cc(C)ccc5C)CC4)nnc23)cc1,5.43%,0%,10.2%,-2.22%,-4.08%
C[C@H](O)c1c(-c2ccc(F)cc2)noc1C(=O)N1CCCC1,-1.39%,-0.387%,1.52%,-34.1%,-2.88%
Cc1cccc(-c2[nH]c(C(C)(C)C)nc2-c2ccc3nccnc3c2)n1,-7.15%,0.248%,-1.93%,-11.9%,2.68%
Cc1ccc(Nc2nc3c(S(=O)(=O)c4ccccc4)nnn3c3ccccc23)cc1,1.59%,0.679%,1.42%,1.63%,-0.536%
COc1ccccc1CNC(=O)C1(C)Cn2c(cc3ccccc32)C(=O)N1Cc1ccc(F)cc1 (stereo not given),-2.98%,1.5%,-3.82%,-10.3%,-5.23%
CC1CCN([C@@H]2[C@H](O)[C@H](CO)O[C@@H]2CNC(=O)c2ccc(F)c(Cl)c2)CC1,-1.43%,0.607%,-1.33%,-4.25%,1.08%
CCN1CCN(Cc2ccc(NC(=O)c3ccc(C)c(Oc4ncnc5[nH]c(C)cc45)c3)cc2C(F)(F)F)CC1,-11.1%,2.16%,-34.2%,-24.5%,-3.14%
Cc1cc(C(=O)N2CCCC[C@H](N(C)C)C2)c(-c2ccccc2)o1,0.053%,2.52%,-2.27%,-6.84%,5.44%
O=C(CSc1nnc2n(Cc3ccccc3)c(=O)c3ccccc3n12)Nc1cccc(F)c1,-10.5%,0.778%,-1.23%,-12.4%,-6.17%
